# From a collection of fitness landscapes (doi:10.1126/science.1257360)
# This is one part of the list.
# B1: PhoQ; a variant is named by its letters at X, in order, P23837 (parent)
# chain: MKKLLRLFFPLSLRVRFLLATAAVVLVLSLAYGMVALIGYSVSFDKTTFRLLRGESNLFYTLAKWENNKLHVELPENIDKQSPTMTLIYDENGQLLWAQRDVPWLMKMIQPDWLKSNGFHEIEADVNDTSLLLSGDHSIQQQLQEVREDDDDAEMTHSVAVNVYPATSRMPKLTIVVVDTIPVELKSSYMVWSWFIYVLSANLLLVIPLLWVAAWWSLRPIEALAKEVRELEEHNRELLNPATTRELTSLVRNLNRLLKSERERYDKYRTTLTDLTHSLKTPLXXLQXXLRSLRSEKMSVSDAEPVMLEQISRISQQIGYYLHRASMRGGTLLSRELHPVAPLLDNLTSALNKVYQRKGVNISLDISPEISFVGEQNDFVEVMGNVLDNACKYCLEFVEISARQTDEHLYIVVEDDGPGIPLSKREVIFDRGQRVDTLRPGQGVGLAVAREITEQYEGKIVAGESMLGGARMEVIFGRQHSAPKDE
# Variants of: B1
# Assay: enrichment ratio after two sorts for PhoP signalling (ratio (wild type AVST 3.29)); higher = more functional
# Settings: with PhoP (E. coli)
row,Variant,enrichment ratio
1,ACTI,5.16
2,PVKT,≤ 0.25
3,PICF,≤ 0.25
4,GIKF,≤ 0.25
5,QQYP,≤ 0.25
6,SPLQ,≤ 0.25
7,NQYR,≤ 0.25
8,SQDP,≤ 0.25
9,DNSP,≤ 0.25
10,TQQG,16.8
11,LFYL,≤ 0.25
12,WFCM,≤ 0.25
13,DSRL,≤ 0.25
14,DRKE,≤ 0.25
15,RKCE,≤ 0.25
16,WKPG,≤ 0.25
17,QFFD,≤ 0.25
18,HERW,≤ 0.25
19,IERK,≤ 0.25
20,NFQA,≤ 0.25
21,DCSM,≤ 0.25
22,AHEE,≤ 0.25
23,TIPS,≤ 0.25
24,LWFG,≤ 0.25
25,EKIV,≤ 0.25

row,Variant,enrichment ratio
1,KKVS,≤ 0.25
2,KVWG,≤ 0.25
3,TRII,0.725
4,PECK,≤ 0.25
5,GLMG,≤ 0.25
6,RWHG,≤ 0.25
7,HHAA,≤ 0.25
8,SNEI,≤ 0.25
9,NNIA,≤ 0.25
10,GMYT,≤ 0.25
11,CLLV,≤ 0.25
12,WEMI,≤ 0.25
13,LGIF,≤ 0.25
14,YGIP,≤ 0.25
15,FVVW,≤ 0.25
16,YNGQ,≤ 0.25
17,RDVR,≤ 0.25
18,YFLW,≤ 0.25
19,SAIS,3.33
20,LMTI,≤ 0.25
21,LNKE,≤ 0.25
22,TKVA,18.4
23,IVIF,≤ 0.25
24,ENSY,≤ 0.25
25,PGEF,≤ 0.25

row,Variant,enrichment ratio
1,ALWH,≤ 0.25
2,ACAE,15.5
3,VDHH,≤ 0.25
4,MKML,≤ 0.25
5,SDEH,≤ 0.25
6,AEVH,6.64
7,MRPV,≤ 0.25
8,HGFN,≤ 0.25
9,IFHD,≤ 0.25
10,NVCV,≤ 0.25
11,TQSR,≤ 0.25
12,RMGP,≤ 0.25
13,FTIL,1.37
14,IGPV,≤ 0.25
15,QHAQ,≤ 0.25
16,TYMA,1.56
17,PFVQ,≤ 0.25
18,EPDY,≤ 0.25
19,PMTN,≤ 0.25
20,ELMN,≤ 0.25
21,HPMP,≤ 0.25
22,LWHA,≤ 0.25
23,RFWW,2.27
24,NVLG,≤ 0.25
25,RPEN,≤ 0.25

row,Variant,enrichment ratio
1,NFLY,≤ 0.25
2,PSFH,≤ 0.25
3,ACSM,13.2
4,IKAK,≤ 0.25
5,RAQT,≤ 0.25
6,KGCY,≤ 0.25
7,KNIR,≤ 0.25
8,VVGK,≤ 0.25
9,KLET,≤ 0.25
10,YVYT,≤ 0.25
11,AKLW,≤ 0.25
12,IGEA,≤ 0.25
13,FWCS,1.37
14,IWEF,≤ 0.25
15,QFIQ,≤ 0.25
16,TFAR,≤ 0.25
17,LAFF,0.609
18,LSFT,0.638
19,KVHI,≤ 0.25
20,GNAS,4.84
21,IWFW,≤ 0.25
22,VNLS,4.23
23,ICLP,≤ 0.25
24,VMTI,≤ 0.25
25,LIFC,≤ 0.25

row,Variant,enrichment ratio
1,YCIL,≤ 0.25
2,DHDA,≤ 0.25
3,KYPW,≤ 0.25
4,AECQ,30.9
5,DQCW,≤ 0.25
6,DAFA,≤ 0.25
7,RILK,≤ 0.25
8,MHYN,≤ 0.25
9,LTTM,≤ 0.25
10,VPHG,≤ 0.25
11,DWCH,≤ 0.25
12,WRKQ,≤ 0.25
13,DIDR,≤ 0.25
14,SECS,20.4
15,IKSC,≤ 0.25
16,NIMC,≤ 0.25
17,STYA,≤ 0.25
18,DIHT,≤ 0.25
19,ESSN,≤ 0.25
20,KVCG,≤ 0.25
21,QIVK,≤ 0.25
22,KIVI,≤ 0.25
23,FMQC,≤ 0.25
24,YCNH,≤ 0.25
25,NWHM,≤ 0.25

row,Variant,enrichment ratio
1,TQRT,≤ 0.25
2,MLQM,≤ 0.25
3,LGEA,≤ 0.25
4,EVFN,≤ 0.25
5,MEIC,11
6,GQYV,≤ 0.25
7,YFLG,≤ 0.25
8,THPS,≤ 0.25
9,TVVK,≤ 0.25
10,KDWE,≤ 0.25
11,SEAR,9.64
12,PKKI,≤ 0.25
13,AFGL,≤ 0.25
14,VTAC,≤ 0.25
15,RIGD,≤ 0.25
16,WIMA,≤ 0.25
17,HKFP,≤ 0.25
18,VHPA,≤ 0.25
19,PSSL,≤ 0.25
20,FVGH,≤ 0.25
21,SQVN,20.3
22,MNVL,2.78
23,HGHD,≤ 0.25
24,LVPQ,≤ 0.25
25,SYDT,≤ 0.25

row,Variant,enrichment ratio
1,LEWE,≤ 0.25
2,RKCN,≤ 0.25
3,TMKN,≤ 0.25
4,FVWA,≤ 0.25
5,AREN,≤ 0.25
6,GGSW,≤ 0.25
7,DFME,≤ 0.25
8,HYQG,≤ 0.25
9,DIQL,≤ 0.25
10,WHDW,≤ 0.25
11,NNLM,2.77
12,PTFH,≤ 0.25
13,TVCY,≤ 0.25
14,HTHS,≤ 0.25
15,TEKW,≤ 0.25
16,VVFK,≤ 0.25
17,YRSY,≤ 0.25
18,ETAF,≤ 0.25
19,CYFY,≤ 0.25
20,NPRI,≤ 0.25
21,NYMW,≤ 0.25
22,MFMK,≤ 0.25
23,GFSW,≤ 0.25
24,EYPM,≤ 0.25
25,WARQ,≤ 0.25

row,Variant,enrichment ratio
1,THLC,5.62
2,LHVE,≤ 0.25
3,FSNM,≤ 0.25
4,NLWE,≤ 0.25
5,RHRF,≤ 0.25
6,GYKL,≤ 0.25
7,CFIF,≤ 0.25
8,TDMR,5.88
9,SQKP,≤ 0.25
10,IKNC,≤ 0.25
11,LWWD,≤ 0.25
12,SCQN,≤ 0.25
13,DTAG,≤ 0.25
14,SKCK,≤ 0.25
15,YYKY,≤ 0.25
16,ETYY,≤ 0.25
17,VRQI,≤ 0.25
18,RYIC,≤ 0.25
19,SNQY,2.66
20,FPGM,≤ 0.25
